# The other results are listed elsewhere or left out.
# B1: Na-CTL-1 (Necator americanus) (protein)
# chain: MQRSFLLLLVVLAGAWAVNTTIPLKLMGGFTPMKYQCVGRVSDIWADVLFLIESSDMITKSGFRQVIAFITATTKKMTIGQDEKQTRVGFITYGEEAKLIYDLDHWRSTEKLSDLVQKIPYVKSSGTNIAAAIALANKVFNSPTHRPNVPKVMVIVANGLKKGSQNPIPVATAFKDFGGIIITIEYTQYDNIQVPILKKIASEGYNIRSNDEDFSVRTLTNMLLQANCFCPDHYVPFRVNNPEFGCFVTAKIPSMWRDAAEMCRAVEEGKLVKVENEEKAAFIMKLVGPKKEAWIGLRYYGNKFQWTDGTKLNADDFNLWPEDIKELNGPHCVSMYQDQKDKKYYWRAGKCLEDMRYVCEVQPCSASNYCSEPVFMYRQKHRALLPAPPPPPN
# How the values were obtained:
# Assay in all cases: glycan array binding signal (z-score within array); higher = stronger binding
# Details in all cases: glycan notation: IUPAC condensed, linker removed
# [1] = target: Gal(b1-4)GlcNAc(b1-3)Gal(b1-4)Glc
# Procedure, shortened: (§1)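 From the Consortium for Functional Glycomics database, 3228 arrays were curated, keeping only those whose protein sequence was available. Binding is given as a within-array Z-score averaged across arrays sharing a protein sequence and across linkers. Negative Z-scores can be read as non-binding.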
# [2] = target: Gal(b1-4)GlcNAc(b1-3)Gal(b1-4)GlcNAc
# Procedure, shortened: as §1
# [3] = target: Gal(b1-4)GlcNAc(b1-3)Gal(b1-4)GlcNAc(b1-2)Man(a1-3)[Gal(b1-4)GlcNAc(b1-3)Gal(b1-4)GlcNAc(b1-2)Man(a1-6)]Man(b1-4)GlcNAc(b1-4)GlcNAc
# Procedure, shortened: as §1
# [4] = target: Gal(b1-4)GlcNAc(b1-3)Gal(b1-4)GlcNAc(b1-2)Man(a1-3)[Gal(b1-4)GlcNAc(b1-3)Gal(b1-4)GlcNAc(b1-2)Man(a1-6)]Man(b1-4)GlcNAc(b1-4)[Fuc(a1-6)]GlcNAc
# Procedure, shortened: as §1
# [5] = target: Gal(b1-4)GlcNAc(b1-3)Gal(b1-4)GlcNAc(b1-2)[Gal(b1-4)GlcNAc(b1-3)Gal(b1-4)GlcNAc(b1-6)]Man(a1-6)[Gal(b1-4)GlcNAc(b1-3)Gal(b1-4)GlcNAc(b1-2)Man(a1-3)]Man(b1-4)GlcNAc(b1-4)GlcNAc
# Procedure, shortened: as §1
# [6] = target: Gal(b1-4)GlcNAc(b1-3)Gal(b1-4)GlcNAc(b1-2)[Gal(b1-4)GlcNAc(b1-3)Gal(b1-4)GlcNAc(b1-6)]Man(a1-6)[Gal(b1-4)GlcNAc(b1-3)Gal(b1-4)GlcNAc(b1-2)Man(a1-3)]Man(b1-4)GlcNAc(b1-4)[Fuc(a1-6)]GlcNAc
# Procedure, shortened: as §1
# [7] = target: Gal(b1-4)GlcNAc(b1-3)Gal(b1-4)GlcNAc(b1-3)Gal(b1-4)GlcNAc
# Procedure, shortened: as §1
# [8] = target: Gal(b1-4)GlcNAc(b1-3)Gal(b1-4)GlcNAc(b1-3)Gal(b1-4)GlcNAc(b1-2)Man(a1-3)[Gal(b1-4)GlcNAc(b1-3)Gal(b1-4)GlcNAc(b1-3)Gal(b1-4)GlcNAc(b1-2)Man(a1-6)]Man(b1-4)GlcNAc(b1-4)GlcNAc
# Procedure, shortened: as §1
# [9] = target: Gal(b1-4)GlcNAc(b1-3)Gal(b1-4)GlcNAc(b1-3)Gal(b1-4)GlcNAc(b1-2)Man(a1-3)[Gal(b1-4)GlcNAc(b1-3)Gal(b1-4)GlcNAc(b1-3)Gal(b1-4)GlcNAc(b1-2)Man(a1-6)]Man(b1-4)GlcNAc(b1-4)[Fuc(a1-6)]GlcNAc
# Procedure, shortened: as §1
# [10] = target: Gal(b1-4)GlcNAc(b1-3)Gal(b1-4)GlcNAc(b1-3)Gal(b1-4)GlcNAc(b1-2)[Gal(b1-4)GlcNAc(b1-3)Gal(b1-4)GlcNAc(b1-3)Gal(b1-4)GlcNAc(b1-6)]Man(a1-6)[Gal(b1-4)GlcNAc(b1-3)Gal(b1-4)GlcNAc(b1-3)Gal(b1-4)GlcNAc(b1-2)Man(a1-3)]Man(b1-4)GlcNAc(b1-4)[Fuc(a1-6)]GlcNAc
# Procedure, shortened: as §1
# [11] = target: Gal(b1-4)GlcNAc(b1-3)Gal(b1-4)GlcNAc(b1-3)Gal(b1-4)GlcNAc(b1-3)Gal(b1-4)GlcNAc(b1-2)Man(a1-3)[Gal(b1-4)GlcNAc(b1-3)Gal(b1-4)GlcNAc(b1-3)Gal(b1-4)GlcNAc(b1-3)Gal(b1-4)GlcNAc(b1-2)Man(a1-6)]Man(b1-4)GlcNAc(b1-4)GlcNAc
# Procedure, shortened: as §1
# [12] = target: Gal(b1-4)GlcNAc(b1-3)Gal(b1-4)GlcNAc(b1-3)Gal(b1-4)GlcNAc(b1-3)Gal(b1-4)GlcNAc(b1-2)Man(a1-3)[Gal(b1-4)GlcNAc(b1-3)Gal(b1-4)GlcNAc(b1-3)Gal(b1-4)GlcNAc(b1-3)Gal(b1-4)GlcNAc(b1-2)Man(a1-6)]Man(b1-4)GlcNAc(b1-4)[Fuc(a1-6)]GlcNAc
# Procedure, shortened: as §1
# [13] = target: Gal(b1-4)GlcNAc(b1-3)Gal(b1-4)GlcNAc(b1-3)Gal(b1-4)GlcNAc(b1-3)Gal(b1-4)GlcNAc(b1-2)[Gal(b1-4)GlcNAc(b1-3)Gal(b1-4)GlcNAc(b1-3)Gal(b1-4)GlcNAc(b1-3)Gal(b1-4)GlcNAc(b1-6)]Man(a1-6)[Gal(b1-4)GlcNAc(b1-3)Gal(b1-4)GlcNAc(b1-3)Gal(b1-4)GlcNAc(b1-3)Gal(b1-4)GlcNAc(b1-2)Man(a1-3)]Man(b1-4)GlcNAc(b1-4)[Fuc(a1-6)]GlcNAc
# Procedure, shortened: as §1
# [14] = target: Gal(b1-4)GlcNAc(b1-3)Gal(b1-4)GlcNAc(b1-3)Gal(b1-4)GlcNAc(b1-3)Gal(b1-4)GlcNAc(b1-3)Gal(b1-4)GlcNAc(b1-2)Man(a1-3)[Gal(b1-4)GlcNAc(b1-3)Gal(b1-4)GlcNAc(b1-3)Gal(b1-4)GlcNAc(b1-3)Gal(b1-4)GlcNAc(b1-3)Gal(b1-4)GlcNAc(b1-2)Man(a1-6)]Man(b1-4)GlcNAc(b1-4)GlcNAc
# Procedure, shortened: as §1
# [15] = target: Gal(b1-4)GlcNAc(b1-3)Gal(b1-4)GlcNAc(b1-3)Gal(b1-4)GlcNAc(b1-3)Gal(b1-4)GlcNAc(b1-3)Gal(b1-4)GlcNAc(b1-2)Man(a1-3)[Gal(b1-4)GlcNAc(b1-3)Gal(b1-4)GlcNAc(b1-3)Gal(b1-4)GlcNAc(b1-3)Gal(b1-4)GlcNAc(b1-3)Gal(b1-4)GlcNAc(b1-2)Man(a1-6)]Man(b1-4)GlcNAc(b1-4)[Fuc(a1-6)]GlcNAc
# Procedure, shortened: as §1
# [16] = target: Gal(b1-4)GlcNAc(b1-3)Gal(b1-4)GlcNAc(b1-3)Gal(b1-4)GlcNAc(b1-3)Gal(b1-4)GlcNAc(b1-3)Gal(b1-4)GlcNAc(b1-2)[Gal(b1-4)GlcNAc(b1-3)Gal(b1-4)GlcNAc(b1-3)Gal(b1-4)GlcNAc(b1-3)Gal(b1-4)GlcNAc(b1-3)Gal(b1-4)GlcNAc(b1-6)]Man(a1-6)[Gal(b1-4)GlcNAc(b1-3)Gal(b1-4)GlcNAc(b1-3)Gal(b1-4)GlcNAc(b1-3)Gal(b1-4)GlcNAc(b1-3)Gal(b1-4)GlcNAc(b1-2)Man(a1-3)]Man(b1-4)GlcNAc(b1-4)[Fuc(a1-6)]GlcNAc
# Procedure, shortened: as §1
# [17] = target: Gal(b1-4)GlcNAc(b1-3)Gal(b1-4)GlcNAc(b1-3)Gal(b1-4)GlcNAc(b1-3)Gal(b1-4)GlcNAc(b1-3)Gal(b1-4)GlcNAc(b1-3)Gal(b1-4)GlcNAc(b1-2)Man(a1-3)[Gal(b1-4)GlcNAc(b1-3)Gal(b1-4)GlcNAc(b1-3)Gal(b1-4)GlcNAc(b1-3)Gal(b1-4)GlcNAc(b1-3)Gal(b1-4)GlcNAc(b1-3)Gal(b1-4)GlcNAc(b1-2)Man(a1-6)]Man(b1-4)GlcNAc(b1-4)GlcNAc
# Procedure, shortened: as §1
# [18] = target: Gal(b1-4)GlcNAc(b1-3)Gal(b1-4)GlcNAc(b1-3)GalNAc
# Procedure, shortened: as §1
# [19] = target: Gal(b1-4)GlcNAc(b1-3)Gal(b1-4)GlcNAc(b1-3)[Gal(b1-4)GlcNAc(b1-3)Gal(b1-4)GlcNAc(b1-6)]GalNAc
# Procedure, shortened: as §1
binder,measurement,setting,value
B1,glycan array binding signal (z-score),[1],0.514
same,glycan array binding signal (z-score),[2],-0.36
same,glycan array binding signal (z-score),[3],0.037
same,glycan array binding signal (z-score),[4],0.009
same,glycan array binding signal (z-score),[5],2.03
same,glycan array binding signal (z-score),[6],0.121
same,glycan array binding signal (z-score),[7],0.293
same,glycan array binding signal (z-score),[8],0.567
same,glycan array binding signal (z-score),[9],0.418
same,glycan array binding signal (z-score),[10],0.481
same,glycan array binding signal (z-score),[11],0.487
same,glycan array binding signal (z-score),[12],2.87
same,glycan array binding signal (z-score),[13],0.461
same,glycan array binding signal (z-score),[14],0.78
same,glycan array binding signal (z-score),[15],0.499
same,glycan array binding signal (z-score),[16],1.59
same,glycan array binding signal (z-score),[17],0.866
same,glycan array binding signal (z-score),[18],-0.022
same,glycan array binding signal (z-score),[19],-0.05

# — the supplement of paper PMC8728848
